In all, about 310,000 compounds went through this assay and about 14,000 (4.5%) showed an effect of 50% or more. Effects have a minus sign here. Some of the results follow.
Each compound was assayed against human ether-à-go-go-related gene (hERG) potassium channel (human, UniProt Q12809) (assay: primary screen, population patch clamp on CHO cells stably expressing hERG).
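Note: peak tail current of the secondary pulse compared with the same well before compound.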

Chain of human ether-à-go-go-related gene (hERG) potassium channel (Q12809 whole entry, looked up): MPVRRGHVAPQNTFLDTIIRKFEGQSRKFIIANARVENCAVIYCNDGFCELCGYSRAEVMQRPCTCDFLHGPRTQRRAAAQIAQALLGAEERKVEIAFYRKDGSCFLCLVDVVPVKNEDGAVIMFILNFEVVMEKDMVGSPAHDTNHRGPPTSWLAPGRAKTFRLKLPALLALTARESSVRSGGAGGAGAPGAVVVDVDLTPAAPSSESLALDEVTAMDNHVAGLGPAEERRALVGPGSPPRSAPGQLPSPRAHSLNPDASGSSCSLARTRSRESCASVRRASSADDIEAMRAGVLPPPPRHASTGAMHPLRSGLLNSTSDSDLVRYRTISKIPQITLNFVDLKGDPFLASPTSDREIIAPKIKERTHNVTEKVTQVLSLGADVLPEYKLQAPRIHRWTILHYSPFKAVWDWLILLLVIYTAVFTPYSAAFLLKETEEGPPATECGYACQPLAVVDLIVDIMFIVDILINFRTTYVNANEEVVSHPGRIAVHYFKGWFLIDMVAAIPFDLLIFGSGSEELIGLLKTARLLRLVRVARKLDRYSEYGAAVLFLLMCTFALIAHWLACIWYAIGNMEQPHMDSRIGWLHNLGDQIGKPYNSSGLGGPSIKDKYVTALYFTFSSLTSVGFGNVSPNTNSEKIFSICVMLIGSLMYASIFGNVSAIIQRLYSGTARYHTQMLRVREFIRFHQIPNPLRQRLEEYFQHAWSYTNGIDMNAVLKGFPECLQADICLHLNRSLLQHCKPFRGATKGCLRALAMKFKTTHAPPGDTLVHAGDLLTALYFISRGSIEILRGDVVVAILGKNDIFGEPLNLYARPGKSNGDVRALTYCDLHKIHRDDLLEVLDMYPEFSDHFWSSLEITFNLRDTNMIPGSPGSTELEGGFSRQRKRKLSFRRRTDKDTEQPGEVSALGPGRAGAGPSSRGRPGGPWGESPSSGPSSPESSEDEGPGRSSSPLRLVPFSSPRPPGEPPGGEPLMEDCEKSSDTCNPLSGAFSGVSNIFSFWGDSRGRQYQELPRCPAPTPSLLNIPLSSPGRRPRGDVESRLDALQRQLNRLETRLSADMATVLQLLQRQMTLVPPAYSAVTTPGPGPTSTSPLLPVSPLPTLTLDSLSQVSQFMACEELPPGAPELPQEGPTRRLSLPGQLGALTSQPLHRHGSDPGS

SMILES	hERG current change (%, negative = inhibition) at 10uM
COC(=O)c1cccc(C23CC4(C2)[C@H](CN(Cc2cccnc2)[C@@H]4c2ccccc2)C3c2ccc(Cl)nc2)c1 (stereo partly drawn)	-12.7%
Cc1cc(C)n2c(Nc3ccc4c(c3)OCCO4)c(-c3ccc(C)o3)nc2n1	-35.5%
CCCC1=NN(c2ccc([N+](=O)[O-])cc2)C(=O)/C1=C/N(C)C	-2.3%
Cc1ccc(CNC(=O)C2CCN(S(=O)(=O)c3cccs3)CC2)o1	-27.6%
Cc1ccc(C(=O)N2CCN(c3ccc(NC(=O)c4cccnc4)cc3)CC2)cc1	-38.8%
Cc1cc(C)cc(NC(=O)CSc2nnc(-c3ccccc3C)o2)c1	3.37%
CC1=NN2C(=N)/C(=C\c3cc(C)n(-c4ccc(C)cc4)c3C)C(=O)N=C2S1	2.9%
CCOC(=O)CSc1nc2ccc(N3CCOCC3)cc2c(=O)n1Cc1ccc2c(c1)OCO2	-2.13%
COc1ccc(C23NCCN2C(=O)c2ccccc23)cc1 (stereo not drawn)	19.4%
COc1ccc(C(=O)Nc2ncccc2C)cc1S(=O)(=O)N1CCCc2ccccc21	9.01%
C#CCSc1nnc(-c2ccccc2)c(=O)[nH]1	8.18%
CCCS(=O)(=O)c1nc(S(=O)(=O)c2ccc(C)cc2)c(N2CCCC2)s1	5.57%
COc1cccc(CC2(CO)CCCN(C/C=C/c3ccccc3OC)C2)c1 (stereo not drawn)	-73.2%
COc1cc2nc(C3CCC3)n(N)c(=O)c2cc1OC	2.76%
O=C(N/N=C/c1ccco1)c1cc(-c2ccc(Cl)cc2)n[nH]1	-3.61%
COC(=O)[C@@]1(Cc2ccc(F)cc2)[C@H]2c3cc(C(=O)N4CCCC4)n(CCc4c[nH]c5ccc(OC)cc45)c3C[C@H]2CN1C(=O)c1ccccc1	3.92%
COC(=O)c1c(NC(=O)CSc2nc(-c3ccco3)cc(C(F)(F)F)n2)sc2c1CCCC2	16.2%
O=c1sc2ccccc2n1Cc1ccccc1	-12.7%
CC1=CC2=NC(=O)/C(=C/c3coc4ccccc4c3=O)C(=N)N2O1	-6.79%
Cc1ccc(S(=O)(=O)NC(CC(=O)NCC2CCCO2)c2ccco2)cc1 (stereo not drawn)	24.9%
O=C1NC(=O)N(c2ccccc2)C(=O)/C1=C\c1ccc2c3c(cccc13)CC2	-20.4%
COc1ccc(CC(=O)OCC(=O)NCCNC(=O)COC(=O)Cc2ccc(OC)cc2)cc1	-9.61%
CN(CC1COc2ccccc2O1)C(=S)Nc1ccccc1F (stereo not drawn)	-1.05%
Cc1nc(NCc2ccccn2)c2ccccc2n1.Cl	1.45%
NC(=NCCc1c[nH]c2ccccc12)NC(=O)c1ccc(Cl)cc1	-2.18%
COc1cccc(OCCc2c(C)n[nH]c2C)c1.Cl	2.05%
O=C(CSc1nc(Nc2ccccc2)nc(N2CCOCC2)n1)NC1CCCCC1	-3.3%

SMILES	hERG current change (%, negative = inhibition) at 10uM
Cc1ccc(NC(=O)[C@H](NC(=O)[C@@H]2Cc3ccccc3CN2)c2ccccc2)cc1C	-37.9%
O=C(CNC(=O)c1ccccc1Br)N/N=C/c1ccccc1O	16.1%
COc1cccc(CNC(=O)CSCC(=O)Nc2ccc(C)cc2)c1	-14.2%
CCCN(c1ccccc1C(=O)O)S(=O)(=O)c1ccc2c(c1)n(C)c(=O)n2C	19.8%
COc1ccc2c(c1)c(C(=O)CN1CCc3ccccc3C1)c(C)n2C	-10.6%
CCN1C(=O)C2(C(C#N)=C(N)Oc3n[nH]c(C(C)C)c32)c2ccccc21 (stereo not drawn)	-10.4%
Oc1ccc(-c2n[nH]c(=S)n2-c2ccc3c(c2)OCCO3)cc1	13.9%
Cl.FC(F)(F)c1ccc2c(c1)N(CCCN1CCN(CCCl)CC1)c1ccccc1S2	-8.34%
O=C(Nc1cccc(F)c1)N1CC=C(n2c(=O)[nH]c3ccccc32)CC1	7.78%
CCN(Cc1ccc2c(c1)OCCO2)C(=O)CSc1nc(C)nc2sc(C)c(C)c12	-21.8%
COc1ccc(/C=C/C(=O)c2ccc(O)cc2)cc1	-0.228%
O=C(CSc1ccc(-c2ccccc2)nn1)N1CCN(c2ccccc2)CC1	-6.59%
COc1ccc(NC(=O)CN2C(=O)/C(=C3\SC(=S)N(C4CCS(=O)(=O)C4)C3=O)c3ccccc32)cc1 (stereo not drawn)	13.8%
Cc1cc(-n2ccnc2)n2c(nc3ccccc32)c1C#N	13.7%
CN(C)S(=O)(=O)Nc1cc(F)cc(F)c1	21.1%
COc1ccccc1OCc1ccc(C(=O)NCC(C)C)o1	-21%
O=C(NC1CCCCC1)C(c1ccc2ncccc2c1)N(Cc1ccc2c(c1)OCO2)C(=O)c1cccs1 (stereo not drawn)	-37.1%
COc1ccc(C(CNC(=O)C(C)c2ccc3cc(OC)ccc3c2)N(C)C)cc1 (stereo not drawn)	-7.44%
CC(C)(C)c1ccc(C(=O)NCCC(=O)NCc2cccs2)cc1	16.3%
O=C(Cc1ccccc1)Oc1ccc([N+](=O)[O-])cc1	15.6%
CCOC(=O)C1=NNC(C(=O)c2ccc(C)cc2)C1c1ccc(OC)cc1 (stereo not drawn)	-15.5%
Cc1cc(OCC(=O)NNC(=O)CCc2ccccc2)ccc1Br	17.6%
CCCOC(=O)C1=C(C)NC2=C(C(=O)CCC2)C1c1cccc(OC)c1OC (stereo not drawn)	0.437%
CC(C)CN(C(=O)c1ccco1)C1CCS(=O)(=O)C1 (stereo not drawn)	-3%
CCC(C)[C@H](NC(=O)NCc1ccccc1)C(=O)O (stereo partly drawn)	3.48%
O=S(=O)(c1cccc(-n2cnnn2)c1)N1CCOCC1	-14.9%
C=CCNC(=O)CC12CC3CC(C1)CC(CC(=O)NCC=C)(C3)C2	19.4%
